Results on 90 compounds are retold here after PMC4336329 (PLoS ONE, 2015).

Structures are written as SMILES. The whole screen tested about 310,000 compounds, of which about 14,000 (4.5%) showed an effect of 50% or more. Effects have a minus sign here. This is one part of the list.
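Note: peak tail current of the secondary pulse compared with the same well before compound.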

human ether-à-go-go-related gene (hERG) potassium channel, sequence (Q12809 whole entry, looked up): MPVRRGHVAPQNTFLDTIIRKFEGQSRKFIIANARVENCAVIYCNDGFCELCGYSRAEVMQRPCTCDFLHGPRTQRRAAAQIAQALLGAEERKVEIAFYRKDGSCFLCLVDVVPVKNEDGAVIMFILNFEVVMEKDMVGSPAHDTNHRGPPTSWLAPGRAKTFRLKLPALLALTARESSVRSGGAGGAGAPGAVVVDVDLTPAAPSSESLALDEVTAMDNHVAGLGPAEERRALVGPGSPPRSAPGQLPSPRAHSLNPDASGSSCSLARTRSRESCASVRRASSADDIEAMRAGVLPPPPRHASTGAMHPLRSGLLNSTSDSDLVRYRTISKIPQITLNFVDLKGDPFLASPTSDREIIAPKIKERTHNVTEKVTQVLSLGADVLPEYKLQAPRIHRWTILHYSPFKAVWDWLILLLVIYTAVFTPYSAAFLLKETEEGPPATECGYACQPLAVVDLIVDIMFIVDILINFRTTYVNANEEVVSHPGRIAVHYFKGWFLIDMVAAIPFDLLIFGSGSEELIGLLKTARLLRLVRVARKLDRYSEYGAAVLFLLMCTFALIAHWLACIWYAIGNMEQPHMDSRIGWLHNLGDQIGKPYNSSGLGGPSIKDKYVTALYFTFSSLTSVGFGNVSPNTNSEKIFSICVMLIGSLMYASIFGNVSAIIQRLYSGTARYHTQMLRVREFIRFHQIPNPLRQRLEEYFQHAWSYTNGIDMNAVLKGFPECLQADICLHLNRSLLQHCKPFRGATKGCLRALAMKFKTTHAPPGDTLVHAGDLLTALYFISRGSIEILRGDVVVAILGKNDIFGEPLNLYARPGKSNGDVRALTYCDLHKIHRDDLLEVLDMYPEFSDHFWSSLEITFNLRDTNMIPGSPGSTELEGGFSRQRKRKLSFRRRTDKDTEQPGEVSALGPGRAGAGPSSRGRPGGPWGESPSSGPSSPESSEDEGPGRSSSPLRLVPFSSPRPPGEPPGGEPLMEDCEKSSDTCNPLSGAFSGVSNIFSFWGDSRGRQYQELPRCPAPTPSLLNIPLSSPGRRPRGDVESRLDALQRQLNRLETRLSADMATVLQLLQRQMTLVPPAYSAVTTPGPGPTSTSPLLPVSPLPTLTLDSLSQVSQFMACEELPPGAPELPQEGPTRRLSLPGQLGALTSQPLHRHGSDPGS

This experiment addresses human ether-à-go-go-related gene (hERG) potassium channel (human, UniProt Q12809). The experiment in a line: primary screen, population patch clamp on CHO cells stably expressing hERG.
On to `O=C(CCC(=O)N1CCSc2ccccc21)NC1CCCCC1`, for which the “hERG current change (%, negative = inhibition) at 10uM” value is recorded as -2.55%.
Regarding `CCOC(=O)c1ccc(NC(=O)CSC(=S)N2CCOCC2)cc1`, the “hERG current change (%, negative = inhibition) at 10uM” value was determined as 2.77%.
As to `CCN(C(=O)Cn1c(=O)oc2cc(S(=O)(=O)N3CCCC3)ccc21)c1ccc(OC)cc1`, the “hERG current change (%, negative = inhibition) at 10uM” value is -0.122%.
As for `CC(C)CC(=O)Nc1ccc(-c2nc3ccccc3c(=O)o2)cc1`, the “hERG current change (%, negative = inhibition) at 10uM” value is given as -10.5%.
Turning to `CC(C)(O)c1[nH]c2ccc(C(F)(F)F)cc2c1C(C)(C)O`, the “hERG current change (%, negative = inhibition) at 10uM” value worked out at 15.4%.
Then `CCOCCCNCC(=O)NC1(C)C2CCC(C2)C1(C)C.Cl` (stereo not drawn), with -3.22%; and `Cc1cc(=O)n2c(C(=O)Nc3ccc(C)c(C)c3)c(C(=O)Nc3ccccc3)sc2n1`, with 15.8%; and `O=C(c1cc(-c2ccc(O)cc2)on1)N1CCc2ccccc2C1`, with -31.3%.
Then `CCOc1cc(CNCCc2ccccc2F)ccc1OC.O=C(O)C(=O)O`, with -42.1%; and `COc1ccc(C(C)=O)cc1CSc1ncccn1`, with 22.1%; and `CC(C)C(=O)NN(C(=O)C(C)C)c1nc2ccccc2s1`, with 17.4%.
Then `CCOC(=O)c1cc2c(ccn2C)n1Cc1ccccc1C`, with 11.8%; and `O=C(NCc1cccs1)c1ccccc1C(=O)NCc1cccs1`, with -40.5%.
`O=S(=O)(Cc1ccccc1)c1cnc2ccccc2n1`: the “hERG current change (%, negative = inhibition) at 10uM” value is 5.71%.
On to `CN=C(NC1CCCCC1)c1ccc(Cl)cc1.Cl`, for which the “hERG current change (%, negative = inhibition) at 10uM” value is -2.67%.
For the compound `COc1ccc(-n2c(Cc3ccccc3)nc3ccccc3c2=O)cc1`, the “hERG current change (%, negative = inhibition) at 10uM” value was -92.8%.
The figure for `COc1ccccc1NC(=O)c1c([N+](=O)[O-])cnn1C` is 15%.
The figure for `O=C(NCCCO)/C(=C\c1ccco1)NC(=O)c1ccco1` is 5.17%; for `CSc1ccc(CNC(=O)Cc2ccc(NC(=O)C3=C(C)OCCS3)cc2)cc1` it is 32.9%; for `CCCCN(C(=O)c1ccc2c(c1)OCCO2)c1c(N)n(CCCC)c(=O)[nH]c1=O` it is -6.19%.
Then `COc1ccc(CNC(=O)CN(C)S(=O)(=O)c2ccc3c(c2)OCCO3)cc1OC`, with 12.7%; and `Cc1[nH]c2ccccc2c1/C=N/NC(=O)CNC(=O)c1ccc2c(c1)OCO2`, with 6.61%.
With `CC(=O)Cc1nsc(NC(=O)c2ccco2)n1`, the “hERG current change (%, negative = inhibition) at 10uM” value stood at 11%.
The figure for `COc1ccc(NC(=O)COc2ccc(C(=O)NC3CCCc4ccccc43)cc2OC)cc1` (stereo not drawn) is 5.51%; for `c1ccc2c(c1)CC1(CCCCC1)n1nnnc1-2` it is 0.708%; for `COc1ccc([N+](=O)[O-])cc1N(CC(=O)NC1CCCC1)S(C)(=O)=O` it is 26.5%.
The figure for `CC(=O)N1CCN(c2ccc(NCc3ccc(C)cc3)cc2)CC1` is 4.17%.
For `C=CCn1c(C#N)c(N)sc1=N`, the “hERG current change (%, negative = inhibition) at 10uM” value is -0.787%.
The figure for `Cc1nn(C(=O)c2ccc([N+](=O)[O-])cc2)c(C)c1Br` is 13.9%; for `O=C(N/N=C/c1cccc2ccccc12)c1cccc(F)c1` it is 7.83%; for `Cc1ccc(C(=O)N2CC(C)OC(C)C2)c(Cl)c1` (stereo not drawn) it is -5.76%.
Then `COc1ccc2[nH]c(C(=O)O)c(CCNC(=O)/C=C/c3ccc(O)c(OC)c3)c2c1`, with 19.2%; and `Cc1ccc(C)c(NC(=O)C(=O)NCCc2c[nH]c3ccccc23)c1`, with 11.7%.
Then `Cc1noc(C)c1CS(=O)(=O)c1ccc(Br)cc1`, with -0.931%; and `CCc1cc2ccc(C)cc2nc1SCC(=O)c1ccc(NC(C)=O)cc1`, with -14.8%.
For the compound `Cc1occc1-c1nnc(SCC(=O)N2CCc3ccccc32)o1`, the “hERG current change (%, negative = inhibition) at 10uM” value is 5.69%.
Take `O=C(C1=C[C@H](c2ccc(C(F)(F)F)cc2)C[C@H](OCCCCO)O1)N1CCOCC1`: the “hERG current change (%, negative = inhibition) at 10uM” value is on record as -23.7%.
With `C=CCC(CC=C)(NC(=O)c1cccc(C)c1)c1ccccc1`, the “hERG current change (%, negative = inhibition) at 10uM” value came to 5.36%.
Then `O=C(O)c1cccc(NC(=O)c2ccccc2NC(=O)c2ccco2)c1`, with 10.1%; and `Cc1onc(-c2ccccc2)c1C(=O)NCc1ccccc1F`, with 7.62%; and `COC(C)(C)[C@H](O)COc1c2ccoc2cc2oc(=O)ccc12`, with 11.2%.
`CCC(=O)Nc1nc2nc(C)cc(=O)n2[nH]1`: the “hERG current change (%, negative = inhibition) at 10uM” value stood at 6.12%.
The figure for `CN(C(=O)c1cc2sccc2n1C)C1CCCCC1` is -21.5%; for `CN(C)CCCN(C(=O)COc1ccccc1)c1nc2c(F)cccc2s1.Cl` it is -81.2%; for `Oc1ccc(-c2csc(Nc3ccccn3)n2)cc1O` it is 8.55%.
The figure for `Cc1cc(C)n(-c2ccc(C(=O)OCn3nnc4ccccc4c3=O)cc2)n1` is 9.96%.
Then `O=C(/C=C/Nc1ccc(Br)cc1F)c1ccccc1`, with -6.1%.
Consider `CCOC(=O)c1ccccc1NS(=O)(=O)c1ccc(OC)cc1`, for which the “hERG current change (%, negative = inhibition) at 10uM” value is on record as -8.11%.
Then `O=C(NCC1CCCO1)c1cc(-c2ccccc2)nc2ccc(Br)cc12` (stereo not drawn), with -2.11%.
Then `COc1ccc(CCNC(=O)C2CCCN(S(=O)(=O)c3cc(C)ccc3OC)C2)cc1OC` (stereo not drawn), with -6.32%.
The figure for `CC(=O)Nc1ccc(NC(=O)CSc2nnc(-c3ccco3)o2)cc1` is 7.81%.
In the case of `N#Cc1cc2ccc(N3CCOCC3)cc2cc1C#N`, the “hERG current change (%, negative = inhibition) at 10uM” value is on record as -1.41%.
The figure for `CCCCCCCCOC(=O)C(NC(=O)CCC(=O)Nc1ccc(S(N)(=O)=O)cc1)C(O)c1ccccc1` (stereo not drawn) is 16.4%; for `Cc1ccccc1NC(=O)NCC1CCCO1` (stereo not drawn) it is 10.3%; for `N=C1C(c2nc(-c3ccc(Cl)cc3)cs2)=C(O)CN1NC(=O)c1ccc(O)cc1` it is 4.02%.
Turning to `Cc1ccc(S(=O)(=O)N2CCCCC2)cc1NC(=O)c1ccc2ccccc2n1`, the “hERG current change (%, negative = inhibition) at 10uM” value amounted to 9.01%.
On to `Cc1nc2ccc(NC(=O)Cc3cccc(F)c3)cc2s1`, for which the “hERG current change (%, negative = inhibition) at 10uM” value was found to be 2.56%.
On to `CCCOc1ccc(NC(=O)C2CC(=O)N(C(C)C)C2)cc1` (stereo not drawn), for which the “hERG current change (%, negative = inhibition) at 10uM” value was found to be 7.03%.
For `CC(C)(CO)NC(=O)C(c1ccccc1)c1ccccc1`, the “hERG current change (%, negative = inhibition) at 10uM” value was found to be 2.03%.
Then `COc1ccc(N2CCN(S(=O)(=O)CCNC(=O)COc3ccccc3)CC2)cc1`, with -0.949%.
Regarding `Nn1c(SCc2ccccc2F)nnc1-c1ccncc1`, the “hERG current change (%, negative = inhibition) at 10uM” value was 1.68%.
For `COc1ccc(C(C)NC(=O)c2ccc(Cl)cc2)cc1OC` (stereo not drawn), the “hERG current change (%, negative = inhibition) at 10uM” value came out at 0.0898%.
The figure for `CCOc1ccc(-c2nnc(-c3ccccc3)o2)cc1` is 10.1%; for `Cc1cccc2cc(CN(CCN3CCOCC3)C(=O)Nc3ccccc3F)c(=O)[nH]c12` it is -20.6%; for `O=c1oc2ccccc2c2nccnc12` it is 13.8%.
The figure for `COc1ccc(Nc2nc3ccccc3n3cnnc23)cc1Cl` is 19.5%; for `COc1ccc(NC(=O)C(=O)N/N=C/c2cc(C)n(-c3cccc(Cl)c3Cl)c2C)c(OC)c1` it is 1.91%.
The figure for `O=C(N/N=C/c1ccc(N2CCOCC2)s1)c1ccccc1Br` is 39.1%; for `Cc1ccc(CN2CCC(CNC(=O)C3CCCN(c4ncnc5c4nc4n5CCCCC4)C3)CC2)cc1` (stereo not drawn) it is -45%; for `CCOc1cccc(C2C(C(=O)c3ccco3)=C(O)C(=O)N2c2nnc(C)s2)c1` (stereo not drawn) it is -10.7%.
`O=S(=O)(c1ccccc1)C1CON(Cc2ccccc2)C1c1ccccc1` (stereo not drawn): the “hERG current change (%, negative = inhibition) at 10uM” value is recorded as -0.527%.
The figure for `COc1cc(/C=N/NC(N)=O)ccc1OCC(=O)N1C(C)CCCC1C` (stereo not drawn) is 11.6%; for `O=C(CCCCCn1c(=S)[nH]c2ccccc2c1=O)N1CCC2(CC1)OCCO2` it is -14.1%; for `O=C(NCC1CCCO1)C(c1cccs1)N(Cc1cccs1)C(=O)c1ccc(-c2ccccc2)[nH]1` (stereo not drawn) it is 7.78%.
Turning to `COc1ccc(OC)c(C(=O)c2ccc(C(=O)Nc3ccccc3)cc2)c1`, the “hERG current change (%, negative = inhibition) at 10uM” value was found to be 10.8%.
The figure for `COc1ccc(OC)c(N2C(=O)C(Cl)=C(N3CCCCC3)C2=O)c1` is -6.18%.
The figure for `CC(=O)c1ccc(NC(=S)N2CCN(C(=S)Nc3ccc(C(C)=O)cc3)C(C)C2)cc1` (stereo not drawn) is 20.6%; for `COc1ccc(-n2nc(C(=O)NCC(=O)Nc3ccccn3)c3ccccc3c2=O)cc1` it is 10.6%.
Then `COC(=O)C1SCC2C(=O)N(Cc3cccc(C)c3)CC(=O)N21` (stereo not drawn), with 13.1%; and `CC(=O)OCCc1c2ccccc2c(CCCN(C)C)c2ccccc12`, with -6.73%; and `O=C(CN1C(=O)c2ccccc2S1(=O)=O)N1CCN(c2ccccc2)CC1`, with -6.06%.
As to `CC1CCN(c2ccc(NC(=O)c3cccnc3Cl)cc2)CC1`, the “hERG current change (%, negative = inhibition) at 10uM” value is listed as 7.64%.
The figure for `Cc1cc(C)nc(NC(=O)CCC2CCCC2)c1` is -4.11%; for `O=C(NNC(=O)C1CCN(Cc2cccc(F)c2)CC1)c1cccs1` it is 21.5%; for `CCOC(=O)C1CCN(C(=O)CCCOc2ccccc2)CC1` it is 3.42%.
Then `CCOc1ccc(C(C)=O)cc1CN1C(=O)C(=O)N(CC)C1=O`, with 1.3%; and `O=C(CNS(=O)(=O)Cc1ccccc1)NCc1ccccc1`, with 16.8%.
The figure for `CCN1CCN(CCCNC(=O)CCC(=O)N2CCOc3ccccc32)CC1` is -13%; for `O=C(CC1C(=O)NCCN1Cc1ccc(F)cc1Cl)NC1CCCCCCC1` (stereo not drawn) it is -2.53%; for `CCCN(c1ccc(C(C)C)cc1)S(=O)(=O)c1c(C)[nH]c(=O)[nH]c1=O` it is -10%.
